# Some of the results follow.
# Tested on: HSkMC (human skeletal muscle cells)
# Assay: cytotoxicity call (relative viability < 0.9)
# Details: 10 µM
row,Structure (SMILES),cytotoxicity call
1,O=C(C[C@@H]1CC[C@H]2[C@@H](COC[C@H](O)CN2C(=O)c2cccnc2)O1)NCc1ccc(-c2ccccc2)cc1,inactive
2,C[C@H]1CN([C@@H](C)CO)C(=O)Cc2cc(NC(=O)Nc3ccc4c(c3)OCO4)ccc2O[C@@H]1CN(C)S(C)(=O)=O,inactive
3,C[C@@H]1CN([C@@H](C)CO)C(=O)c2cccc(NC(=O)Nc3ccc(C(F)(F)F)cc3)c2O[C@H]1CN(C)Cc1ccc(Oc2ccccc2)cc1,active
4,CN(C)CC(=O)N[C@H]1CC[C@@H](CCNS(=O)(=O)c2ccccc2)O[C@@H]1CO,inactive
5,CCOC[C@@H](O)CS(=O)(=O)c1ccccn1,inactive
6,C[C@@H]1CCCCO[C@@H](CN(C)C(=O)Cc2ccccc2)[C@H](C)CN([C@@H](C)CO)C(=O)c2cc(NC(=O)Nc3ccc4c(c3)OCO4)ccc2O1,inactive
7,C[C@@H]1CN([C@H](C)CO)C(=O)CCCn2cc(nn2)CO[C@H]1CN(C)S(=O)(=O)c1cccc(C#N)c1,inactive
8,C[C@H](CO)N1C[C@H](C)[C@H](CN(C)CC2CCOCC2)Oc2cc(C#Cc3ccccc3F)ccc2S1(=O)=O,inactive
9,C[C@H]1CN([C@@H](C)CO)C(=O)Cc2cc(NC(=O)c3ccncc3)ccc2O[C@@H]1CN(C)Cc1ccc2c(c1)OCO2,inactive
10,CCCOC(=S)N[C@H]1OC[C@@H](O)[C@@H](O)[C@@H]1O,inactive
11,C[C@@H]1CN([C@H](C)CO)C(=O)c2cc(NC(=O)c3ccccc3)ccc2O[C@@H](C)CCCCO[C@@H]1CN(C)C(=O)Cc1ccccc1,inactive

# Tested on: HepG2
# Assay: cytotoxicity call (relative viability < 0.9)
# Details: 10 µM
row,Structure (SMILES),cytotoxicity call
1,C[C@@H]1CN([C@@H](C)CO)C(=O)c2cccc(NS(=O)(=O)c3cn(C)cn3)c2O[C@@H]1CN(C)C(=O)Nc1ccc(F)cc1,inactive
2,C[C@H]1CN([C@@H](C)CO)C(=O)c2cc(NC(=O)CCCN(C)C)ccc2O[C@H]1CN(C)S(=O)(=O)c1ccc(F)cc1,inactive
3,Cc1noc(C)c1S(=O)(=O)N(C)C[C@@H]1OCc2cn(nn2)CCCC(=O)N([C@@H](C)CO)C[C@H]1C,inactive
4,COc1ccc(S(=O)(=O)Nc2ccc3c(c2)CC(=O)N([C@@H](C)CO)C[C@H](C)[C@H](CN(C)C(=O)Nc2c(C)noc2C)O3)cc1,inactive
5,CCc1nc2ccc(C(=O)NCc3ccc4c(c3)OCO4)cn2c1N(CC)Cc1cccc(Br)c1,inactive
6,C[C@@H]1CCCCO[C@H](CN(C)Cc2ccc(Cl)c(Cl)c2)[C@H](C)CN([C@@H](C)CO)C(=O)c2cc(NS(=O)(=O)c3ccc(Cl)cc3)ccc2O1,active
7,CNC(=O)C[C@H]1Nc2ccccc2NC1=O,inactive
8,COc1ccccc1C#Cc1cnc2c(c1)C(=O)N([C@H](C)CO)C[C@@H](C)[C@@H](CN(C)C(=O)CC1CC1)O2,inactive
9,C[C@@H]1CN([C@@H](C)CO)C(=O)c2cc(C#CC3(O)CCCC3)cnc2O[C@@H]1CN(C)C(=O)Cc1ccncc1,inactive
10,COc1ccc([Si](C)(C)[C@H]2[C@H](CCOC(=O)NCCCCCC(=O)NO)O[C@]3(C(=O)N(Cc4cccc(I)c4)c4ccccc43)[C@@H]2C)cc1,inactive
11,CN1C(=O)c2cc(NC(=O)c3cscn3)ccc2OC[C@H]2O[C@@H](CC(=O)N3CCOCC3)CC[C@@H]21,inactive
12,C[C@H]1CN([C@@H](C)CO)C(=O)Cc2cc(NC(=O)Nc3ccccc3)ccc2O[C@H]1CN(C)C(=O)Nc1ccc(C(F)(F)F)cc1,inactive
13,C[C@H]1CN([C@@H](C)CO)S(=O)(=O)c2ccc(-c3ccncc3)cc2O[C@H]1CN(C)S(=O)(=O)c1ccccc1F,inactive
14,Cc1ccc(S(=O)(=O)Nc2ccc3c(c2)CC(=O)N([C@@H](C)CO)C[C@@H](C)[C@@H](CN(C)S(C)(=O)=O)O3)cc1,inactive
15,Cc1noc(C)c1S(=O)(=O)Nc1ccc2c(c1)CC(=O)N([C@@H](C)CO)C[C@@H](C)[C@H](CN(C)C(=O)NC(C)C)O2,inactive
16,CCCN(C)C[C@H]1OCCCC[C@H](C)Oc2ccc(NC(=O)CCC(F)(F)F)cc2C(=O)N([C@H](C)CO)C[C@H]1C,inactive
17,C[C@@H]1CN([C@@H](C)CO)C(=O)c2cc(NS(C)(=O)=O)ccc2O[C@H]1CN(C)C(=O)NC1CCCCC1,inactive
18,O=C(C[C@@H]1CC=CCC[C@@H](Cc2ccc(F)cc2)C(=O)OCCNC1=O)N[C@@H](CO)Cc1ccccc1,inactive
19,COc1ccc([Si](C)(C)[C@@H]2[C@@H](CCn3cc(CCOC(=O)NCCCCCC(=O)NO)nn3)O[C@]3(C(=O)N(Cc4ccc(I)cc4)c4ccccc43)[C@H]2C)cc1,inactive
20,O=C1N[C@H](Cc2ccccc2)COC(=O)[C@@H](Cc2ccc(F)cc2)CCC=CC[C@@H]1CC(=O)N(CCO)Cc1ccccc1,inactive

row,Structure (SMILES),cytotoxicity call
1,C[C@@H]1CN([C@H](C)CO)C(=O)c2cc(NC(=O)Nc3cccc4ccccc34)ccc2O[C@@H]1CN(C)S(=O)(=O)c1ccc(Cl)cc1,inactive
2,C[C@@H]1CCCCO[C@H](CN(C)S(=O)(=O)c2cccs2)[C@@H](C)CN([C@H](C)CO)C(=O)c2cc(NC(=O)C3CCCCC3)ccc2O1,inactive
3,C[C@H]1CN([C@@H](C)CO)C(=O)c2cc(NS(C)(=O)=O)ccc2O[C@H]1CN(C)Cc1ccc(C(F)(F)F)cc1,inactive
4,C[C@@H]1CN([C@@H](C)CO)C(=O)c2cc(NC(=O)CCN3CCOCC3)ccc2O[C@H]1CN(C)S(=O)(=O)c1ccccc1,inactive
5,C[C@@H]1CCCCO[C@@H](CN(C)C(=O)Nc2ccc3c(c2)OCO3)[C@H](C)CN([C@@H](C)CO)C(=O)c2cc(NC(=O)NC3CCCCC3)ccc2O1,inactive
6,C[C@@H]1CCCCO[C@@H](CN(C)Cc2ccc(C(=O)O)cc2)[C@@H](C)CN([C@H](C)CO)C(=O)c2cc(NC(=O)Nc3ccc4c(c3)OCO4)ccc2O1,inactive
7,CC[C@@]12O[C@H]3[C@@H](O)[C@H]4C[C@@H]3[C@@H]1[C@@H]4C(=O)N2C,inactive
8,COc1cc(OC)c2ccc(=O)oc2c1,inactive
9,C[C@H]1CN([C@@H](C)CO)C(=O)c2cccc(NC(=O)Nc3ccc(F)cc3)c2O[C@H]1CN(C)Cc1ccc(Cl)c(Cl)c1,inactive
10,O=C(C[C@@H]1CC[C@H]2[C@@H](COC[C@H](O)CN2C(=O)c2cccnc2)O1)NCc1ccc(-c2ccccc2)cc1,inactive
11,C[C@H]1CN([C@@H](C)CO)C(=O)Cc2cc(NC(=O)Nc3ccc4c(c3)OCO4)ccc2O[C@@H]1CN(C)S(C)(=O)=O,inactive
12,C[C@@H]1CN([C@@H](C)CO)C(=O)c2cccc(NC(=O)Nc3ccc(C(F)(F)F)cc3)c2O[C@H]1CN(C)Cc1ccc(Oc2ccccc2)cc1,inactive
13,CN(C)CC(=O)N[C@H]1CC[C@@H](CCNS(=O)(=O)c2ccccc2)O[C@@H]1CO,inactive
14,CCOC[C@@H](O)CS(=O)(=O)c1ccccn1,inactive
15,C[C@@H]1CCCCO[C@@H](CN(C)C(=O)Cc2ccccc2)[C@H](C)CN([C@@H](C)CO)C(=O)c2cc(NC(=O)Nc3ccc4c(c3)OCO4)ccc2O1,inactive
16,C[C@@H]1CN([C@H](C)CO)C(=O)CCCn2cc(nn2)CO[C@H]1CN(C)S(=O)(=O)c1cccc(C#N)c1,inactive
17,C[C@H](CO)N1C[C@H](C)[C@H](CN(C)CC2CCOCC2)Oc2cc(C#Cc3ccccc3F)ccc2S1(=O)=O,inactive
18,C[C@H]1CN([C@@H](C)CO)C(=O)Cc2cc(NC(=O)c3ccncc3)ccc2O[C@@H]1CN(C)Cc1ccc2c(c1)OCO2,inactive
19,CCCOC(=S)N[C@H]1OC[C@@H](O)[C@@H](O)[C@@H]1O,inactive
20,C[C@@H]1CN([C@H](C)CO)C(=O)c2cc(NC(=O)c3ccccc3)ccc2O[C@@H](C)CCCCO[C@@H]1CN(C)C(=O)Cc1ccccc1,inactive

# Source: the antibiotic and cytotoxicity screens of Wong et al. (2023)
